Source: paper PMC4336329 (PLoS ONE, 2015)
Out of some 310,000 compounds screened, about 2,200 (0.71%) showed an effect of 50% or more. Effects have a minus sign here. This is one part of the list.

target: human ether-à-go-go-related gene (hERG) potassium channel (human, UniProt Q12809); experiment: primary screen, population patch clamp on CHO cells stably expressing hERG
Sequence (Q12809 whole entry, looked up): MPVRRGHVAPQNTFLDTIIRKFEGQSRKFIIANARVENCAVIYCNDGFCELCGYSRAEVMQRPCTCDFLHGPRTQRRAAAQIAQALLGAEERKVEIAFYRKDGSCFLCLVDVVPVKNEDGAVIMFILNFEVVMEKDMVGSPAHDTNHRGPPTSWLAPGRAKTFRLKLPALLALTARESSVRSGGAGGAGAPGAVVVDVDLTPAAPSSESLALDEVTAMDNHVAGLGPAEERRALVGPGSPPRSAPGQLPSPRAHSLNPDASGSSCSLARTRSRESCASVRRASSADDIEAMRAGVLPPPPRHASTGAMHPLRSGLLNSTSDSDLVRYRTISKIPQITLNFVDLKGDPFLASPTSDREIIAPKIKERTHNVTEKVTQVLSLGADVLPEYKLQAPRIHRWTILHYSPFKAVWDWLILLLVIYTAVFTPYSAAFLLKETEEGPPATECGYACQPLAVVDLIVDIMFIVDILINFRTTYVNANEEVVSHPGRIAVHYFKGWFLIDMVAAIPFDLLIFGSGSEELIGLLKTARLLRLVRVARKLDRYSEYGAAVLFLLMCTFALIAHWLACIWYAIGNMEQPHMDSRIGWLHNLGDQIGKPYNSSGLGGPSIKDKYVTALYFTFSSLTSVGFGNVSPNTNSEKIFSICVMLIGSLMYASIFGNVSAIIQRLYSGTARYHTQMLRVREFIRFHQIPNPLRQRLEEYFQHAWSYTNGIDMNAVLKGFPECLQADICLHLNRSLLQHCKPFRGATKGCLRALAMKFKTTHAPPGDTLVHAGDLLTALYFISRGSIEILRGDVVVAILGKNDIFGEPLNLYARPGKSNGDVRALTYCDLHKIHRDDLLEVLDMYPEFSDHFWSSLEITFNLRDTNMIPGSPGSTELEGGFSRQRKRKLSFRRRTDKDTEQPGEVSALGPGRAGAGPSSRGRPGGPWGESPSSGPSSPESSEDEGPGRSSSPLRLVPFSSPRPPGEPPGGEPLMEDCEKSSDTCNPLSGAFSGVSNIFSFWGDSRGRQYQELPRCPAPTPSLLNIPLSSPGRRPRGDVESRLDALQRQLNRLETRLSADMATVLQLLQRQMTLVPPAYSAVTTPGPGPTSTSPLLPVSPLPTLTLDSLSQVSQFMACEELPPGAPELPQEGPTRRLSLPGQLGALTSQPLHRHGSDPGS

Structure (SMILES) | hERG current change (%, negative = inhibition) at 1uM
CCOc1cc(C)c(Cl)cc1S(=O)(=O)N1CCCC1 | 1.64%
CCOc1ccc(CN(C)CC(=O)Nc2ccc3c(c2)CCC3)cc1OC | 0.23%
Cc1ccc(CNC2CCCCC2)s1.Cl | 5.81%
O=C1C(Cl)=C(N2CCCCC2)C(=O)N1c1ccccc1 | 10.1%
COc1cc(NC(=O)CCc2nc(-c3cccs3)no2)cc(OC)c1OC | 9.53%
COc1ccc(C(=S)N2CCOCC2)cc1OC(=O)c1ccc(C)cc1 | 9.36%
N#Cc1c(NC(=O)c2ccc([N+](=O)[O-])o2)sc2c1CCC2 | 17.5%
O=C(NC(CC(=O)N1CCN(c2ccccc2)CC1)c1ccccc1)c1ccccc1Cl (stereo not shown) | -19.6%
COC(=O)c1ccc(S(N)(=O)=O)o1 | -3.32%
O=C1CC[C@H](N2C(=O)c3ccccc3C2=O)C(=O)N1 | 11.9%
O=C(NCC1CCCO1)c1cc(-c2ccc(F)cc2)no1 (stereo not shown) | 7.69%
O=C1/C(=C/c2ccc(F)cc2)SC(=S)N1Nc1ncc(C(F)(F)F)cc1Cl | 6.37%
CCCCOc1ccc(/C=C/C(=O)NC2=Nc3ccccc3NC(C)=C2C(=O)OCC)cc1OC | 9.67%
COc1ccc(C(=O)Nc2ccccc2C(=O)Nc2ccccn2)cc1 | 12.3%
C/C(N)=C(/C#N)C(=O)CSc1nnc(COc2ccccc2Cl)o1 | 11.7%
COC(=O)c1cc(NS(=O)(=O)c2ccc(N3CCOCC3)c(N)c2)cc(C(=O)OC)c1 | 7.74%
NC(=O)C(=O)N/N=C/c1cccc(C(F)(F)F)c1 | 10.2%
C/C(=N\NC(=O)c1cc2c(s1)CCC(C)C2)c1cccnc1 (stereo not shown) | 9.72%
O=C1CC(c2cccs2)c2cc3c(cc2N1)OCCO3 (stereo not shown) | 10.2%
O=[N+]([O-])c1cc(Cl)cc(/C=N/NC(=S)Nc2cc(S(=O)(=O)N3CCOCC3)ccc2Cl)c1O | 13.6%
O=C(N/C(=C\c1ccc2c(c1)OCO2)C(=O)N1CCOCC1)c1cccs1 | -18.7%
Cc1nnc(SCC(=O)Nc2nccs2)o1 | 11.7%
O=C(NCCN1CCCCC1)c1ccc(Oc2cc(Cl)cc(Cl)c2)o1 | 5.95%

Structure (SMILES) | hERG current change (%, negative = inhibition) at 1uM
COc1ccc(S(=O)(=O)N(C)CC(=O)Nc2cccc(C(C)=O)c2)cc1 | 13.1%
Cc1ccc(-c2cc(-c3ccc(F)cc3)c(C#N)c(N)n2)o1 | 12.1%
COC(=O)CC(NS(=O)(=O)c1cccs1)c1cccc2ccccc12 (stereo not shown) | 12.3%
CSc1nc2sc3c(c2c(=O)[nH]1)CCC(C)C3 (stereo not shown) | 20%
Cc1ccc(N(CC(=O)NC2CCCC2)C(=O)c2nsc(Cl)c2Cl)cc1 | 6.79%
COc1ccc(Br)cc1S(=O)(=O)NCc1ccccc1 | 9.27%
COc1ccc([N+](=O)[O-])cc1NC(=O)Cn1ccsc1=N.Cl | 4.34%
CC1CCN(CC(=O)Nc2ccccc2-c2ccccc2)CC1 | -22.2%
CCOc1ccc(/C=N/NC(=O)C2(O)c3ccccc3-c3ccccc32)cc1 | 11.4%
Cc1oc2cc3oc(=O)c(CCC(=O)NCCCN4CCCC4=O)c(C)c3cc2c1C | 2.06%
COCCCNC(=O)c1ccc(Cn2c(=O)[nH]c3ccccc3c2=O)cc1 | 12.9%
CCN1C(=O)[C@@H]2Cc3c([nH]c4ccccc34)C(c3ccc(OC)cc3)N2C1=S (stereo partly shown) | 6.42%
Cc1ccc(Cn2c(S(=O)(=O)O)nc3ccccc32)cc1 | 12%
C/C(CCC(C)C)=N\Nc1ccc(S(N)(=O)=O)cc1[N+](=O)[O-] | 2.32%
O=C(Nc1cccnc1)c1ccc(N2CCCC2)c([N+](=O)[O-])c1 | 15.3%
Fc1ccccc1Nc1nc2ccccc2n2nnnc12 | 8.79%
CCc1oc2c(C)c(O)ccc2c(=O)c1-c1ccc2ccccc2n1 | 15.9%
Cc1ccc(C2=NN=C(NC(=O)CSc3nnc4c5ccccc5n(C)c4n3)SC2)cc1 | 8.27%
CN(CC(=O)Nc1ccc(F)cc1)C(=O)COC(=O)COc1ccc(C#N)cc1 | 1.25%
CCOc1ccc(NC(=S)Nc2cccc3ccccc23)cc1 | 10.6%
CCOc1ccc(CNC(=O)CCCOc2cc(=O)n(C)c3ccccc23)cc1 | -5.83%
COc1ccc(CNC(=O)Cc2c(C(=O)O)[nH]c3ccccc23)cc1 | 3.03%
COC(=O)c1cn(C(=O)c2cc(OC)c(OC)c(OC)c2)c2ccccc12 | 5.38%
